# Results are given in words; binding and its absence hold for the method and conditions named. Binding seen in cells or lysates may run through a third protein. Some results given as binding are weak or reduced against the parent protein; the word gives no strength.
# By UniProt entry, the sequences of proteins in these tests, tags left out. Where a name states a change or a piece, a line headed by the entry shows the natural chain unless it says otherwise. Residues count along the entry.
# UniProt Q15393: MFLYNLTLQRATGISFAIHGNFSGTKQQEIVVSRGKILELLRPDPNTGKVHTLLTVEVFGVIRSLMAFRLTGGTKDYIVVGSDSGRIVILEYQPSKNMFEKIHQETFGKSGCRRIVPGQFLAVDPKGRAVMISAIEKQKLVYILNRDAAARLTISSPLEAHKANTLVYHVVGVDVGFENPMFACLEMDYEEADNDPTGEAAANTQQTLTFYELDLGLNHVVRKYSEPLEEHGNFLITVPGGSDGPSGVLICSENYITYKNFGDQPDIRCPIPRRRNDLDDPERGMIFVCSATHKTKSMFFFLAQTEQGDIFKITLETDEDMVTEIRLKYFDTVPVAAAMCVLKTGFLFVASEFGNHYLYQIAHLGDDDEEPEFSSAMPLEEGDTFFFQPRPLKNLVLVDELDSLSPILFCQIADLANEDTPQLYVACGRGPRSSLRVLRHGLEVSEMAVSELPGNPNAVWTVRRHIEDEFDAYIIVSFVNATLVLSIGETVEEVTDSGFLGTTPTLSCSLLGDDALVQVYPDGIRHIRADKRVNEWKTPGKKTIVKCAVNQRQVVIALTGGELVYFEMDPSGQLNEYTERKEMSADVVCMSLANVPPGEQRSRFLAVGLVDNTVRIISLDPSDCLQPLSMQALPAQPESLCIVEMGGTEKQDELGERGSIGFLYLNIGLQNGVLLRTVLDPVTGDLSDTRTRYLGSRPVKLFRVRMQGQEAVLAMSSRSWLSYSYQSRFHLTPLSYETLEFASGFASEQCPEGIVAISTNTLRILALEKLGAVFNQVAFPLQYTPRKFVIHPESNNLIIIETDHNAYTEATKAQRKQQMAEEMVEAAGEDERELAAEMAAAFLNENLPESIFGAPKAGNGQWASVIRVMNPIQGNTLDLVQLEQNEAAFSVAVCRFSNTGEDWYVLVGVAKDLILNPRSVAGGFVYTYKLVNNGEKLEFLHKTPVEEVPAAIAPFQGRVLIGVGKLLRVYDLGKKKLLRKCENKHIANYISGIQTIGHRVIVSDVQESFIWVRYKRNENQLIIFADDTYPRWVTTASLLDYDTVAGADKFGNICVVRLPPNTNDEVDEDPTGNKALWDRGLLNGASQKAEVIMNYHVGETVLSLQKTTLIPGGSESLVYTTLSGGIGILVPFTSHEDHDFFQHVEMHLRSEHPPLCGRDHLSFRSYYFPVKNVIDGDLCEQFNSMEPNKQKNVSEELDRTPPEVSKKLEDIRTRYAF
# UniProt P40337: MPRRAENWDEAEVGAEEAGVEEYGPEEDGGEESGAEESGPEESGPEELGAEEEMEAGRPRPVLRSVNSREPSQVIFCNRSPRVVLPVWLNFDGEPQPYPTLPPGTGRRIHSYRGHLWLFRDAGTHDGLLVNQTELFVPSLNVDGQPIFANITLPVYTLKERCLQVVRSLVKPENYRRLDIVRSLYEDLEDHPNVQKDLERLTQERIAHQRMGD
# UniProt Q13098: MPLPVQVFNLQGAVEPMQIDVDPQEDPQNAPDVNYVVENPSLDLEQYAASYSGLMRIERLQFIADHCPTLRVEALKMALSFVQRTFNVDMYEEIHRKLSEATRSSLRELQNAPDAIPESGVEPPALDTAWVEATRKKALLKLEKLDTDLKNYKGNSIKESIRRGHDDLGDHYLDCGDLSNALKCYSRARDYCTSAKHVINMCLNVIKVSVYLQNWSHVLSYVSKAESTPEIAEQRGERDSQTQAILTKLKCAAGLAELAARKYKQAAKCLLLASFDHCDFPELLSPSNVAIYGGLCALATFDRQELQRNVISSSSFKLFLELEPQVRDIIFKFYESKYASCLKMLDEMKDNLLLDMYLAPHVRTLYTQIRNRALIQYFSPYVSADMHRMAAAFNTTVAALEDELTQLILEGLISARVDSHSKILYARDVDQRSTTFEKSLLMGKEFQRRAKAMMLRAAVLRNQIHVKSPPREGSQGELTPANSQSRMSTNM
# CSN1N (1–196 aa): residues 1-196 of Q13098
# UniProt Q92905: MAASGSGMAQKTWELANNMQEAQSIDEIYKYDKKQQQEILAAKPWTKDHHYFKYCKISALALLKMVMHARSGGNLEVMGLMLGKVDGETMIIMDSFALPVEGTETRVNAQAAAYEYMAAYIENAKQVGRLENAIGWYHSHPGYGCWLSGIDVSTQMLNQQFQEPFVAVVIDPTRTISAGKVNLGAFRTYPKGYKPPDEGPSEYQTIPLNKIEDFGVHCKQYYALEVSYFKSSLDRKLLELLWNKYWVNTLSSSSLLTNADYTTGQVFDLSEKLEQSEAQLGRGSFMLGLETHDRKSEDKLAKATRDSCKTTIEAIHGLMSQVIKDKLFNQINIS
# UniProt P61201: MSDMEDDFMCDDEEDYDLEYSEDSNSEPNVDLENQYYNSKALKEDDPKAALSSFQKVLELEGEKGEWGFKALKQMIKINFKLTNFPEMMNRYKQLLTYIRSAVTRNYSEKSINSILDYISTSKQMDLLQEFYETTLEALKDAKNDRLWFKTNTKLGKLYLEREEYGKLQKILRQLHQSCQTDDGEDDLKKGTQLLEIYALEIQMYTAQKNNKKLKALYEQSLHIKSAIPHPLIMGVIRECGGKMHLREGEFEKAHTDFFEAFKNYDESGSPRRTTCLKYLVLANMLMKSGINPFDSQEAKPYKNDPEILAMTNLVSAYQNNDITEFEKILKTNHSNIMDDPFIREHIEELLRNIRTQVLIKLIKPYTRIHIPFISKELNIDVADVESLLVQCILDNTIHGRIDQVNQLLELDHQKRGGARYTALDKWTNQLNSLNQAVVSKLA
# UniProt Q16531: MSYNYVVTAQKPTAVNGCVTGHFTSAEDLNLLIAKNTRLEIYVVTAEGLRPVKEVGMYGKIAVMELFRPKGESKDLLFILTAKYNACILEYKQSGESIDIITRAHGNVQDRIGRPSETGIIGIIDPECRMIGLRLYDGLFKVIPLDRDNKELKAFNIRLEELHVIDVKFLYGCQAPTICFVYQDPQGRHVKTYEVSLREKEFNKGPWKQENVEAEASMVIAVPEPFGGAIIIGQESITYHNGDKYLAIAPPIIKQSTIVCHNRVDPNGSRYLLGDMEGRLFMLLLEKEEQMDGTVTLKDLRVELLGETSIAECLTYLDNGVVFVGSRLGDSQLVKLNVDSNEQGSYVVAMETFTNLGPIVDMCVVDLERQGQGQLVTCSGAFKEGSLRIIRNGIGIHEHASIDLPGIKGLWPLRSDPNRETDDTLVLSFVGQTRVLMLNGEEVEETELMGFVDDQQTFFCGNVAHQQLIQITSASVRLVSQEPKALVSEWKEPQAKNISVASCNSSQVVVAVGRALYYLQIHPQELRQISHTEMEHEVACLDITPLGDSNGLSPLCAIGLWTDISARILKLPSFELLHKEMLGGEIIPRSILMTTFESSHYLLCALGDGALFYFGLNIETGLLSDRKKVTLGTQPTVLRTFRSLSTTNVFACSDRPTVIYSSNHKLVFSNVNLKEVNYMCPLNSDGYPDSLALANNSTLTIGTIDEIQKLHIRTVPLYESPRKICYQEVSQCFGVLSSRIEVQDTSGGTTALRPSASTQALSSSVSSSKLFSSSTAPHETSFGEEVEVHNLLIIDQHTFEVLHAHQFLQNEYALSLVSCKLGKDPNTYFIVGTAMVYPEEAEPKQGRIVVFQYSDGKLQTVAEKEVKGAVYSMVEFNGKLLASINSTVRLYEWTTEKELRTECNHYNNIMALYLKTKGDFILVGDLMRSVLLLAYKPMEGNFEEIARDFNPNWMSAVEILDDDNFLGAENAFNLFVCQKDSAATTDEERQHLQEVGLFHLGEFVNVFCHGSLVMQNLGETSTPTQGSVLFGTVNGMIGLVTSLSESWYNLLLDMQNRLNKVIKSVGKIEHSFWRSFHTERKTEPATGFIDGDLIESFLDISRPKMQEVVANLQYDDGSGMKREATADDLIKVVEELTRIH
# UniProt Q92466: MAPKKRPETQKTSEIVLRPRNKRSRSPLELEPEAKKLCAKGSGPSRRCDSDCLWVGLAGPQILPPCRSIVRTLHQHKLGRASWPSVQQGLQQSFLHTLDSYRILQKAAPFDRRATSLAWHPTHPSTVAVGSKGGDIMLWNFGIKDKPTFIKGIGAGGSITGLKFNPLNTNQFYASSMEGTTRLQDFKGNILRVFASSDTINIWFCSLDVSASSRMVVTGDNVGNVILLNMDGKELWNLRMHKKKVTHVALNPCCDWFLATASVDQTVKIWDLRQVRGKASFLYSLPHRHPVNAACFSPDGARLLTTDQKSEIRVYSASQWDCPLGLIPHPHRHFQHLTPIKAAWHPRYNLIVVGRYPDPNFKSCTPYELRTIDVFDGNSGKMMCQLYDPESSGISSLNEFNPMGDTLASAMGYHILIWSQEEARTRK
# UniProt Q15843, residues 1-76: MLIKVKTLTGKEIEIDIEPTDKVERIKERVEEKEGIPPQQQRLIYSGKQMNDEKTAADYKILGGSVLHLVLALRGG
# UniProt O75533: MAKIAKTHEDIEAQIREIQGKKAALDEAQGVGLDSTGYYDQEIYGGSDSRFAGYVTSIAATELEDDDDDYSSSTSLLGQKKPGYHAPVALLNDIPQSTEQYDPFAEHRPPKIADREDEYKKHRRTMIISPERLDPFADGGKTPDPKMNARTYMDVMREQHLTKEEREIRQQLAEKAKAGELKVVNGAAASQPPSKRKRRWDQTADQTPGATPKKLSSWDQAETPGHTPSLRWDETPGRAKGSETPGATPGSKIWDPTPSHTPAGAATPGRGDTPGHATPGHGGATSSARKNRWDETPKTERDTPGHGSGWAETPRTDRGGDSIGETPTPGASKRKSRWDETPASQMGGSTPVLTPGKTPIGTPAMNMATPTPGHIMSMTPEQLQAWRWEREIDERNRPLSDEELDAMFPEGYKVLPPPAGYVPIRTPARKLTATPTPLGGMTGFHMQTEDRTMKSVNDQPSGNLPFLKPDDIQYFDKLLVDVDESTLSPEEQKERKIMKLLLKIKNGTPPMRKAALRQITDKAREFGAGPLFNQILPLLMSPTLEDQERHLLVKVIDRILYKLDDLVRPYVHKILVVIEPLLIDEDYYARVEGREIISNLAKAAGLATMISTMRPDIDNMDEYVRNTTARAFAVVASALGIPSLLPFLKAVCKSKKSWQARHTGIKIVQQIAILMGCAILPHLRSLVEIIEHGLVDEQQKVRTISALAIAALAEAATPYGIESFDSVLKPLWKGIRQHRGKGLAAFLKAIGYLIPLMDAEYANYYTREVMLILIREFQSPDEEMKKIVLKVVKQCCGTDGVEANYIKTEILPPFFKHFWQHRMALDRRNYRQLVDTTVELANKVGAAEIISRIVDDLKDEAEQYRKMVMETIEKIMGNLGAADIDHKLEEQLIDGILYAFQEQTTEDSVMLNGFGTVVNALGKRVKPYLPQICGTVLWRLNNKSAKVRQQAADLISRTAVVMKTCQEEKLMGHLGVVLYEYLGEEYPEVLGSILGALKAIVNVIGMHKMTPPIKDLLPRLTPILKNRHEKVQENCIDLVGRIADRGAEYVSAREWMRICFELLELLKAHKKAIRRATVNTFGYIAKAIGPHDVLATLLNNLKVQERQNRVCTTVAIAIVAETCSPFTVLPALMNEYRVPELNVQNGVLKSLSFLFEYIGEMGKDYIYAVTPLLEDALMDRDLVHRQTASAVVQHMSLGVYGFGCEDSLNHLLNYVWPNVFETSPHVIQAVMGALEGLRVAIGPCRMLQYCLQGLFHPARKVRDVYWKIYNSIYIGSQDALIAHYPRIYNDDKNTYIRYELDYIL
# UniProt P63208: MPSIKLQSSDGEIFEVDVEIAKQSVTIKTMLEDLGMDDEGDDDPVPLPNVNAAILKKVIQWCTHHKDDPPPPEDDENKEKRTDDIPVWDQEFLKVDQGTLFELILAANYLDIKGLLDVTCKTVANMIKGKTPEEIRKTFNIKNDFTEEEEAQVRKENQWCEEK
# How the values were obtained:
# HA-SAP130 [1] = target: HA-SAP130 (UniProt Q15393); experiment: co-IP; HEK293 cells transiently transfected with HA-SAP130 or empty vector; anti-HA IP, blots for endogenous proteins; 10 μM MG132 before collection
# HA-SAP130 [2] = target: HA-SAP130 (UniProt Q15393); experiment: co-IP; data not shown; transiently expressed DDB2 co-precipitated by SAP130
# HA-VHL = HA-VHL (UniProt P40337); experiment: co-IP; HEK293 cells transfected with HA-VHL and Flag-SAP130; anti-HA and anti-Flag IP, blots with the indicated antibodies
# [3] = target: HA-SAP130 (in vitro translated) (UniProt Q15393); experiment: co-IP; HA-SAP130 in vitro translated in rabbit reticulocyte lysate supplemented with GST or GST-Nedd8 (1 μg each); HA IP, anti-GST blot for the free proteins; only the binder purified
# Flag-SAP130 [4] = target: Flag-SAP130 (UniProt Q15393); experiment: co-IP; HA-Cul1, HA-Cul2 and their truncations transfected into Flag-SAP130 stable cells; Flag IP, anti-HA blot
# GST-CSN1 = GST-CSN1 (UniProt Q13098); experiment: pull-down; S35-Met labeled HA-SAP130 in rabbit reticulocyte lysate incubated with recombinant GST or GST-CSN1 (1 μg each) for 30 min; GST pull-down, autoradiogram; only the target purified
# Flag-SAP130 [5] = target: Flag-SAP130 (UniProt Q15393); experiment: co-IP; HEK293 cells transfected with HA-VHL and Flag-SAP130; anti-HA and anti-Flag IP, blots with the indicated antibodies
# CSN1N (1–196 aa) = CSN1N (1–196 aa) (UniProt Q13098); experiment: co-IP; HeLa cells co-transfected with SAP130-myc or HA-CPSF160 and Flag-tagged CSN subunits; Flag IP, blot with anti-myc or anti-HA
# Flag-CSN5 = Flag-CSN5 (UniProt Q92905); experiment: as above
# Flag-CSN2 = Flag-CSN2 (UniProt P61201); experiment: as above
# Flag-CSN1 = Flag-CSN1 (UniProt Q13098); experiment: as above
substance,measurement,setting,value
DDB1 (from UniProt Q16531 1-1140),binding,HA-SAP130 [1],binds
DDB2 (transiently expressed) (from UniProt Q92466 1-427),binding,HA-SAP130 [2],binds
Flag-SAP130 (from UniProt Q15393 1-1217),binding,HA-VHL,binds
GST-Nedd8 (from UniProt Q15843 1-76),binding,[3],no binding (tested: 1 μg)
HA-Cul1C280 (from UniProt Q13616 496-776) (domain or fragment),binding,Flag-SAP130 [4],binds
HA-Cul1C450 (from UniProt Q13616 326-776) (domain or fragment),binding,Flag-SAP130 [4],binds
HA-Cul1N428 (from UniProt Q13616 1-428) (domain or fragment),binding,Flag-SAP130 [4],binds weakly
HA-SAP130 (in vitro translated) (from UniProt Q15393 1-1217),binding,GST-CSN1,binds
HA-VHL (from UniProt P40337 1-213),binding,Flag-SAP130 [5],binds
SAP130-myc (from UniProt Q15393 1-1217),binding,CSN1N (1–196 aa),binds
same,binding,Flag-CSN5,binds
same,binding,Flag-CSN2,no binding
same,binding,Flag-CSN1,binds
SAP155 (from UniProt O75533 1-1304),binding,HA-SAP130 [1],binds
Skp1 (from UniProt P63208 1-163),binding,HA-SAP130 [1],binds
